This is one part of the list.
Columns and labels:
Experiment in all cases: glycan array binding signal (z-score within array); higher = stronger binding
Conditions in all cases: glycan notation: IUPAC condensed, linker removed
[1] = biological target: GlcNAc(b1-4)GlcNAc(b1-4)GlcNAc(b1-4)GlcNAc(b1-4)GlcNAc(b1-4)GlcNAc
Summary of the method: (§1)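 The Consortium for Functional Glycomics database supplied 3228 glycan arrays, of which those lacking an available protein sequence were dropped. The binding signal, a within-array Z-score, was averaged across arrays of the same protein sequence and across linkers. Negative scores can be read as non-binding.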

[2] = biological target: GlcNAc(b1-4)[GlcNAc(b1-6)]GalNAc
Summary of the method: as §1

[3] = biological target: GlcNAc(b1-6)Gal(b1-4)GlcNAc
Summary of the method: as §1

GlcNAc(b1-6)GalNAc = biological target: GlcNAc(b1-6)GalNAc
Summary of the method: as §1

[4] = biological target: GlcNAc6S(b1-3)Gal(b1-4)GlcNAc
Summary of the method: as §1

Kdn(a2-3)Gal(b1-3)GalNAc = biological target: Kdn(a2-3)Gal(b1-3)GalNAc
Summary of the method: as §1

Kdn(a2-3)Gal(b1-3)GlcNAc = biological target: Kdn(a2-3)Gal(b1-3)GlcNAc
Summary of the method: as §1

Kdn(a2-3)Gal(b1-4)Glc = biological target: Kdn(a2-3)Gal(b1-4)Glc
Summary of the method: as §1

Kdn(a2-3)Gal(b1-4)GlcNAc = biological target: Kdn(a2-3)Gal(b1-4)GlcNAc
Summary of the method: as §1

[5] = biological target: Kdn(a2-3)Gal(b1-4)[Fuc(a1-3)]GlcNAc
Summary of the method: as §1

Kdn(a2-6)Gal(b1-4)GlcNAc = biological target: Kdn(a2-6)Gal(b1-4)GlcNAc
Summary of the method: as §1

[6] = biological target: Man(a1-2)Man(a1-2)Man(a1-3)Man
Summary of the method: as §1

[7] = biological target: Man(a1-2)Man(a1-2)Man(a1-6)[Man(a1-3)]Man
Summary of the method: as §1

Man(a1-2)Man(a1-3)Man = biological target: Man(a1-2)Man(a1-3)Man
Summary of the method: as §1

[8] = biological target: Man(a1-2)Man(a1-3)[Man(a1-2)Man(a1-6)]Man
Summary of the method: as §1

[9] = biological target: Man(a1-2)Man(a1-3)[Man(a1-2)Man(a1-6)]Man(a1-6)[Man(a1-2)Man(a1-2)Man(a1-3)]Man
Summary of the method: as §1

[10] = biological target: Man(a1-2)Man(a1-3)[Man(a1-2)Man(a1-6)]Man(a1-6)[Man(a1-2)Man(a1-2)Man(a1-3)]Man(b1-4)GlcNAc(b1-4)GlcNAc
Summary of the method: as §1

[11] = biological target: Man(a1-2)Man(a1-3)[Man(a1-6)]Man(a1-6)[Man(a1-2)Man(a1-3)]Man(b1-4)GlcNAc(b1-4)GlcNAc
Summary of the method: as §1

[12] = biological target: Man(a1-2)Man(a1-6)[Man(a1-3)]Man(a1-6)[Man(a1-2)Man(a1-2)Man(a1-3)]Man
Summary of the method: as §1

[13] = biological target: Man(a1-2)Man(a1-6)[Man(a1-3)]Man(a1-6)[Man(a1-2)Man(a1-2)Man(a1-3)]Man(b1-4)GlcNAc(b1-4)GlcNAc
Summary of the method: as §1

Man(a1-3)[Man(a1-6)]Man = biological target: Man(a1-3)[Man(a1-6)]Man
Summary of the method: as §1

[14] = biological target: Man(a1-3)[Man(a1-6)]Man(a1-6)[Man(a1-2)Man(a1-3)]Man(b1-4)GlcNAc(b1-4)GlcNAc
Summary of the method: as §1

[15] = biological target: Man(a1-3)[Man(a1-6)]Man(a1-6)[Man(a1-3)]Man
Summary of the method: as §1

[16] = biological target: Man(a1-3)[Man(a1-6)]Man(a1-6)[Man(a1-3)]Man(b1-4)GlcNAc(b1-4)GlcNAc
Summary of the method: as §1

[17] = biological target: Man(a1-3)[Man(a1-6)]Man(b1-4)GlcNAc(b1-4)GlcNAc
Summary of the method: as §1

[18] = biological target: Man(a1-3)[Man(a1-6)]Man(b1-4)GlcNAc(b1-4)[Fuc(a1-6)]GlcNAc
Summary of the method: as §1

Man(a1-6)Man = biological target: Man(a1-6)Man
Summary of the method: as §1

Man(b1-4)GlcNAc = biological target: Man(b1-4)GlcNAc
Summary of the method: as §1

MurNAc(b1-4)GlcNAc = biological target: MurNAc(b1-4)GlcNAc
Summary of the method: as §1

Neu5Ac(a2-3)Gal = biological target: Neu5Ac(a2-3)Gal
Summary of the method: as §1

[19] = biological target: Neu5Ac(a2-3)Gal(b1-3)GalNAc
Summary of the method: as §1

[20] = biological target: Neu5Ac(a2-3)Gal(b1-3)GalNAc(b1-3)Gal(a1-4)Gal(b1-4)Glc
Summary of the method: as §1

[21] = biological target: Neu5Ac(a2-3)Gal(b1-3)GalNAc(b1-4)Gal(b1-4)Glc
Summary of the method: as §1

[22] = biological target: Neu5Ac(a2-3)Gal(b1-3)GalNAc(b1-4)[Neu5Ac(a2-3)]Gal(b1-4)Glc
Summary of the method: as §1

[23] = biological target: Neu5Ac(a2-3)Gal(b1-3)GalNAc(b1-4)[Neu5Ac(a2-8)Neu5Ac(a2-3)]Gal(b1-4)Glc
Summary of the method: as §1

[24] = biological target: Neu5Ac(a2-3)Gal(b1-3)GalNAc6S
Summary of the method: as §1

[25] = biological target: Neu5Ac(a2-3)Gal(b1-3)GlcNAc
Summary of the method: as §1

B1: B160 (Bifidobacterium sp) (protein)
chain: MVSHNKRIVAALAAVAAMGIGLAGCGGSDTAGDTKSGSDGGVVNITYMHRLPDSEGMTLVNDIVAKWNKEHPNIQVKATKFDGNAADMIKKLETDVKAGNAPDLAQVGYAEVPEVFTKGLLQDVTDEAAKYKDDFASGPFALMQVDGKTYGLPQDTGPLTYFYNAAEFEKLGITVPKTADELIETAKKTAAQGKYIMTFTPDEAMMMMSGQAGASGPWYKVDGNSWVVNTQTKGSKAVADVYQQLIDNKAALTNPRWDASFDNSIQSGQLIGTVAAAWEAPLFIDSAGGTGAGEWKVTQLGDWFGNGTKTGANGGSGVAVLKGSKHPAEAMEFLDWFNTQVDDLVSQGLVVAATTADAKTPQKWSDYFSGQDVMAEFKTANDNMGDFTYMPGFSAVGAAMKQTAAKAADGSAKVSDVFDTAQKTSVDTLKNLGLSVKE
glycan array binding signal (z-score) [1]: -0.174
glycan array binding signal (z-score) [2]: -0.173
glycan array binding signal (z-score) [3]: -0.148
glycan array binding signal (z-score) (GlcNAc(b1-6)GalNAc): -0.184
glycan array binding signal (z-score) [4]: -0.166
glycan array binding signal (z-score) (Kdn(a2-3)Gal(b1-3)GalNAc): -0.125
glycan array binding signal (z-score) (Kdn(a2-3)Gal(b1-3)GlcNAc): -0.172
glycan array binding signal (z-score) (Kdn(a2-3)Gal(b1-4)Glc): -0.184
glycan array binding signal (z-score) (Kdn(a2-3)Gal(b1-4)GlcNAc): -0.178
glycan array binding signal (z-score) [5]: -0.125
glycan array binding signal (z-score) (Kdn(a2-6)Gal(b1-4)GlcNAc): -0.156
glycan array binding signal (z-score) [6]: -0.159
glycan array binding signal (z-score) [7]: -0.142
glycan array binding signal (z-score) (Man(a1-2)Man(a1-3)Man): -0.194
glycan array binding signal (z-score) [8]: -0.183
glycan array binding signal (z-score) [9]: -0.161
glycan array binding signal (z-score) [10]: -0.145
glycan array binding signal (z-score) [11]: -0.171
glycan array binding signal (z-score) [12]: -0.178
glycan array binding signal (z-score) [13]: -0.164
glycan array binding signal (z-score) (Man(a1-3)[Man(a1-6)]Man): -0.135
glycan array binding signal (z-score) [14]: -0.141
glycan array binding signal (z-score) [15]: -0.201
glycan array binding signal (z-score) [16]: -0.142
glycan array binding signal (z-score) [17]: -0.17
glycan array binding signal (z-score) [18]: -0.146
glycan array binding signal (z-score) (Man(a1-6)Man): -0.157
glycan array binding signal (z-score) (Man(b1-4)GlcNAc): -0.161
glycan array binding signal (z-score) (MurNAc(b1-4)GlcNAc): -0.171
glycan array binding signal (z-score) (Neu5Ac(a2-3)Gal): -0.174
glycan array binding signal (z-score) [19]: -0.204
glycan array binding signal (z-score) [20]: -0.163
glycan array binding signal (z-score) [21]: -0.19
glycan array binding signal (z-score) [22]: -0.16
glycan array binding signal (z-score) [23]: -0.156
glycan array binding signal (z-score) [24]: -0.165
glycan array binding signal (z-score) [25]: -0.172

From the supplement of paper PMC8728848
